# Experimental data as given in PubChem BioAssay AID720542 (National Center for Advancing Translational Sciences (NCATS), 2013).
# Screen size: about 360,000 compounds; about 740 (0.21%) were called active. This list was built around the results that the source calls inconclusive (neither active nor inactive); the mix of calls is not that of the screen. Calls come from the whole dose curve; as a rule, active = well fitted inhibition curve with a large enough effect; inconclusive = small, poorly fitted or top-dose-only effect; inactive = no such curve, though single readings can be large or run the other way. Potencies of inconclusive entries are left out as doubtful fits.
# Tested on: Plasmodium falciparum AMA1 (3D7) - RON2 peptide interaction
# Assay: qHTS for Inhibitors of AMA1-RON; Towards Development of Antimalarial Drug Lead: Primary Screen; note: nearly all actives have a fitted effect of over 45% in size
# Conditions: AlphaScreen AMA1-biotinylated RON2 peptide binding; series mostly up to 58.2 µM
# Outline: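 AMA1 (3D7) with his tag at 25 nM final met compounds first, then biotinylated RON2 peptide at 25 nM; detection used donor plus acceptor beads, 10 µg/mL apiece, read by AlphaScreen after 30 min at room temperature.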
# Potency is the fitted concentration of half-maximal effect; tags give direction and shape of the fitted curve.
row,Structure (SMILES),Potency
1,COc1ccc(OCCCn2ccnc2)cc1,"inconclusive [inhibitor, single point]"
2,COc1cc(SC)ccc1C(=O)N(CC(=O)Nc1ccccc1Br)Cc1ccco1,"inconclusive [inhibitor, single point]"
3,Cc1ccc(C(=O)Nc2ccc(O)c(C(=O)O)c2)o1,inactive
4,COc1ccc(OC)c(C(=O)NC2CC(C)(C)Cc3c2cnn3-c2ccccc2)c1 (stereo not drawn),inactive
5,Cn1ccc2c(-c3ccc4c(c3)OCCO4)cc3c(c21)C1CCC3O1 (stereo not drawn),"inconclusive [inhibitor, single point]"
6,CCc1nc2ccc(C(=O)NCc3ccc4c(c3)OCO4)cn2c1N(CCC(C)C)CCN(C)C,inactive
7,COc1ccc(OC)c(NC(=O)Cc2coc3ccc4ccccc4c23)c1,"inconclusive [inhibitor, full curve]"
8,Cc1cc(=O)oc2cc(OCC3CC(c4ccc(N(C)C)cc4)=NO3)ccc12 (stereo not drawn),"inconclusive [inhibitor, partial curve, poor fit]"
9,COc1cccc(CCNCc2ccc(SC)cc2)c1,"inconclusive [inhibitor, partial curve]"
10,CC(C)Cc1nnc(NC(=O)C2CC(=O)N(c3ccc4c(c3)OCCO4)C2)s1 (stereo not drawn),"inconclusive [inhibitor, partial curve]"
11,CC(C)N1C(=O)/C(=C/C=C/c2ccco2)C(=O)N(Cc2ccco2)C1=O,"inconclusive [inhibitor, single point]"
12,CCc1sc(C(=O)N2CCN(c3ccc(F)cc3)CC2)cc1C,"inconclusive [inhibitor, partial curve]"
13,Cc1ccc2nc(NC(=O)c3ccc(NS(=O)(=O)c4cccs4)cc3)sc2c1,inactive
14,CCc1ccc(/C=C/C(=O)c2cc(Br)ccc(=O)c2O)cc1,inactive
15,CCOc1ccc(C(=O)Nc2ccc(C(F)(F)F)n(C)c2=O)cc1,"inconclusive [inhibitor, full curve, poor fit]"
16,COc1ccc(CNC(=O)c2ccccc2SCC(=O)NCc2ccco2)cc1,inactive
17,CC(Oc1ccc2c(c1)oc(=O)c1ccccc12)C(=O)NC(Cc1c[nH]c2ccc(O)cc12)C(=O)O (stereo not drawn),"inconclusive [inhibitor, single point]"
18,CCCn1nc([N+](=O)[O-])c(C(C#N)c2nc3ccccc3o2)c(Cl)c1=O (stereo not drawn),"inconclusive [inhibitor, partial curve]"
19,COc1ccc(NC(=O)CN(C)C(=O)Cc2ccc(S(=O)(=O)N3CCOCC3)s2)cc1,"inconclusive [inhibitor, partial curve]"
20,N#CCC(=O)N/N=C\c1ccc(OC/C=C/c2ccccc2)cc1,inactive
21,COc1ccccc1/C=C(/C(=O)OCC(=O)Nc1ccc(N(C)C)cc1)c1ccccc1,"inconclusive [inhibitor, partial curve]"
22,CCN(CC)C(=O)C1CCCN(C(=O)Nc2ccc(NC(=O)N3CCCC(C(=O)N(CC)CC)C3)cc2)C1 (stereo not drawn),inactive
23,C=CCOC(=O)C(C#N)c1nc2ccccc2nc1N1CCN(c2ccccc2OC)CC1 (stereo not drawn),"inconclusive [inhibitor, partial curve]"

row,Structure (SMILES),Potency
1,COc1ccc(OC)c(N2C(=O)/C(=C/c3ccco3)C(=O)NC2=S)c1,"inconclusive [inhibitor, partial curve]"
2,COc1ccc(N2CCN(Cc3ccc(Br)s3)CC2)cc1,"inconclusive [inhibitor, partial curve]"
3,CN(CC(=O)NCCCc1ccccc1)Cc1ccc(Br)cc1,"inconclusive [inhibitor, single point]"
4,COc1cccc(NC(=O)c2nn(C)c(C(=O)Nc3cccc(OC)c3)c2[N+](=O)[O-])c1,inactive
5,COc1ccccc1N1CCN(C(c2ccccc2Cl)c2nnnn2C(C)(C)C)CC1 (stereo not drawn),inactive
6,COc1ccccc1/C=N/NC(=O)c1csc(C)c1C,inactive
7,O=C(NC(=S)N1CCN(Cc2ccccc2)CC1)c1cccnc1,"inconclusive [inhibitor, partial curve, poor fit]"
8,CCOC(=O)C1CCCN(c2ccc(NC(=O)c3snc4c(=O)[nH]cnc34)cc2)C1 (stereo not drawn),"inconclusive [inhibitor, single point]"
9,COc1ccc(-c2cc(C(F)F)nc(-n3nc(C)cc3C)n2)cc1,"inconclusive [inhibitor, partial curve]"
10,COc1ccc(CCN=C(N)Nc2nc(C)cc(C)n2)cc1,inactive
11,CCOC(=O)c1ccc(S(=O)(=O)NCC(c2ccc(N(C)C)cc2)c2c[nH]c3ccccc23)cc1 (stereo not drawn),active: 14.1 µM
12,CC(C)(O)C#Cc1ccc([C@@H]2C[C@H]3CN(c4ccccc4)C(=O)[C@]34CCCN24)s1,"inconclusive [inhibitor, partial curve]"
13,COc1ccc(CC(N)c2csc(NC(=O)Nc3ccccc3-c3ccccc3)n2)cc1 (stereo not drawn),inactive
14,O=C(NCO)c1cccnc1,inactive
15,COc1ccc(-c2cc(C3CCN(Cc4cccc(C(F)(F)F)c4)CC3)[nH]n2)cc1,"inconclusive [inhibitor, single point]"
16,CSCC[C@H](NC(=O)NCc1ccccc1F)C(=O)O,inactive
17,Cc1cc2c(cc1S(=O)(=O)N1CCN(c3ccc(Cl)cc3)CC1)OCCN2C,"inconclusive [inhibitor, partial curve]"
18,COc1ccc(O)cc1CN1CCN(c2ncc(Cc3ccccc3)cn2)CC1,"inconclusive [inhibitor, partial curve]"
19,CC(=O)c1c(O)n(-c2cccc(Cl)c2)c(=O)[nH]c1=O (tested in a mixture with another compound),"inconclusive [inhibitor, full curve]"
20,CCOc1ccc(NC(=O)CSc2nnc(-c3ccccn3)n2C)cc1,"inconclusive [inhibitor, single point]"
21,CN(C)c1ccc(C(CNC(=O)c2ccc(F)cc2)c2c[nH]c3ccccc23)cc1 (stereo not drawn),"inconclusive [inhibitor, partial curve]"
22,COCCNC(=O)C(=O)Nc1ccc2c(c1)N(S(=O)(=O)c1cccs1)CCC2,inactive
23,CCN1/C(=C2\C(=O)N(C)C(=S)N2C)C=Cc2ccccc21,"inconclusive [inhibitor, single point]"

row,Structure (SMILES),Potency
1,Cc1nc(N2CCN(Cc3ccc4c(c3)OCO4)CC2)c2oc3ccccc3c2n1,"inconclusive [inhibitor, single point]"
2,O=C(NNC(=O)C1CC(c2cccnc2)=NO1)Nc1ccccc1F (stereo not drawn),inactive
3,Cc1ncc([N+](=O)[O-])n1CCOc1nonc1N,"inconclusive [inhibitor, full curve, poor fit]"
4,Nc1ccc(N=Nc2ccccc2)cc1[N+](=O)[O-],"inconclusive [inhibitor, partial curve]"
5,CCN1C(=O)[C@@H]2[C@@H](c3ccc(SC4CCCCC4)c(OC)c3)N3CCC[C@@]3(C(=O)OC)[C@@H]2C1=O,"inconclusive [inhibitor, single point]"
6,O=C(NN(Cc1ccccc1)Cc1ccccc1)c1ccccc1,"inconclusive [inhibitor, single point]"
7,FC(F)(F)c1ccc(N=Cc2sc(N3CCOCC3)nc2-c2ccccc2)cc1,"inconclusive [inhibitor, full curve, poor fit]"
8,CC(C)(C)c1ccc(C(=O)N2CCOC23CCCCC3)cc1,inactive
9,Cc1cccc(Cn2c(=O)c3c(nc4n3CCCN4Cc3ccccc3)n(C)c2=O)c1,inactive
10,O=P(COCCO)(c1ccccc1)c1ccccc1,inactive
11,CCN(CC)CCCN1C=C2C(=O)C(C)(OC(=O)C3CCCC3)C(=O)C(c3ccccc3)=C2C=C1CCCC(=O)OC (stereo not drawn),inactive
12,COc1ccc(CN2CCN(CCSc3ccc(C)cc3)CC2)c(OC)c1OC,"inconclusive [inhibitor, partial curve]"
13,CN1C(=O)c2ccccc2C(O)c2ccccc21 (stereo not drawn),"inconclusive [inhibitor, single point]"
14,Cc1cccc(OCc2nnc3n2CCCCC3)c1,"inconclusive [inhibitor, partial curve]"
15,COc1ccc(C(=O)/C=C/c2ccc(OC3CSC3)cc2)cc1,"inconclusive [inhibitor, single point]"
16,Cc1c(OCC(=O)NCC2CCC(C(=O)O)CC2)ccc2c(-c3ccccc3)cc(=O)oc12 (stereo not drawn),"inconclusive [inhibitor, full curve, poor fit]"
17,CC1(C(=O)Nc2ccc3c(c2)OCO3)CCN1C(=O)Cc1ccc(-c2ccccc2)cc1 (stereo not drawn),"inconclusive [inhibitor, partial curve]"
18,CCc1cc2c(=O)c(-c3nc(C)cs3)coc2cc1OC(C)C(=O)NCCO (stereo not drawn),inactive
19,O=C(COC(=O)C1CC2CCCC(C1)C2=O)Nc1cccc(F)c1 (stereo not drawn),inactive
20,Cc1ccc(-c2nnn(CC(=O)N(c3cccc(F)c3)C(C(=O)NC3CCCC3)c3ccco3)n2)o1 (stereo not drawn),"inconclusive [inhibitor, single point]"
21,COc1cc(NS(=O)(=O)c2ccc(NC(=S)NC(=O)/C=C/c3ccco3)cc2)ncn1,"inconclusive [inhibitor, partial curve]"
22,COc1ccc(/C=C2\Sc3ccc(C(=O)NCc4cccnc4)cc3N(C)C2=O)cc1OC,"inconclusive [inhibitor, partial curve]"
